Paper PMC4336329 (PLoS ONE, 2015)
About 14,000 (4.5%) of roughly 310,000 compounds showed an effect of 50% or more. Effects have a minus sign here. Some of the results follow.

Target: human ether-à-go-go-related gene (hERG) potassium channel (human, UniProt Q12809)
Test: primary screen, population patch clamp on CHO cells stably expressing hERG
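Further: peak tail current of the secondary pulse compared with the same well before compound.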

Chain of human ether-à-go-go-related gene (hERG) potassium channel (Q12809 whole entry, looked up): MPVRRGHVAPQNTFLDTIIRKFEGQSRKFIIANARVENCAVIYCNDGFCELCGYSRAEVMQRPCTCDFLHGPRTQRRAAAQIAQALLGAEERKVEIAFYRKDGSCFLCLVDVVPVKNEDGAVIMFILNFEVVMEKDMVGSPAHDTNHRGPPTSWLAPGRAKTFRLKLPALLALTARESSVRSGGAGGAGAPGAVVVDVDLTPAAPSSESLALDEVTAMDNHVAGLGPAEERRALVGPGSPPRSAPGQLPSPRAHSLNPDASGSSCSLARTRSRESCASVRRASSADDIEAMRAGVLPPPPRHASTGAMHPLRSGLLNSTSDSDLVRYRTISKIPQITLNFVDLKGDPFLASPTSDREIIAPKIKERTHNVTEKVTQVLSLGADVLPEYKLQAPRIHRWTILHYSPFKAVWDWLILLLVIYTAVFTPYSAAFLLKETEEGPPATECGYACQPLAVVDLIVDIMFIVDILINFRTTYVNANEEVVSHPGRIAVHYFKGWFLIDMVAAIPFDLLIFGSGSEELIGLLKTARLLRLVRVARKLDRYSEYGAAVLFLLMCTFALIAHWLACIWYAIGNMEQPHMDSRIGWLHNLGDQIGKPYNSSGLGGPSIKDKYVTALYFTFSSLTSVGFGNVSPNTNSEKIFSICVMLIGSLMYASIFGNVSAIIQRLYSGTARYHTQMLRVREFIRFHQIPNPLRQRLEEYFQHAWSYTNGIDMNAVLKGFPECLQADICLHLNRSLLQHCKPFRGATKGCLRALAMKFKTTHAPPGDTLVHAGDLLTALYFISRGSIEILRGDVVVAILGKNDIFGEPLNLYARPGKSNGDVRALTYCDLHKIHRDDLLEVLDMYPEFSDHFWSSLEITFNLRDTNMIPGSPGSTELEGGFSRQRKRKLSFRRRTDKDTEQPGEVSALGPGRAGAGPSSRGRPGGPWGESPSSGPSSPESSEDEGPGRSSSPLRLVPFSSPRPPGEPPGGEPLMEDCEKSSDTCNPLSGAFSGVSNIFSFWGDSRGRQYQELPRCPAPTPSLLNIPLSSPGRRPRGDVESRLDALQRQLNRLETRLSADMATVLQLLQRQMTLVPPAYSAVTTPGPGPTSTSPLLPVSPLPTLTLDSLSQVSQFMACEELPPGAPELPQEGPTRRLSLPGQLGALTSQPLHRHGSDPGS

With `Cc1nc(C(=O)NNC(=O)c2cccc(Cl)c2)c(C(F)(F)F)o1` as the compound, how does the “hERG current change (%, negative = inhibition) at 10uM” value read?
The value was 5.37%.

For `Nc1cc(N)nc(SCC(=O)N2CCN(C(=O)c3ccco3)CC2)n1`, which “hERG current change (%, negative = inhibition) at 10uM” value is on record?
The value was 0.783%.

`CC1CCN(C(=O)/C(=C\c2cccs2)NC(=O)c2ccccc2)CC1` was tested. Which “hERG current change (%, negative = inhibition) at 10uM” value did it give?
Its value is -38%.

With `Cc1ccc(C)c(NS(=O)(=O)c2cc(C(=O)Nc3ccccc3-c3ccccc3)ccc2Cl)c1` as the compound, how does the “hERG current change (%, negative = inhibition) at 10uM” value read?
Its value is 2.19%.

With `CCOC(=O)CN1C(=O)CN(c2ccc(C)c(C)c2)C1=O` as the compound, how does the “hERG current change (%, negative = inhibition) at 10uM” value read?
The value was 8.53%.

With `Cc1cc(NC(=O)C(C)SCC(=O)OC(C)C(=O)Nc2ccccc2C)no1` (stereo not shown) as the compound, how does the “hERG current change (%, negative = inhibition) at 10uM” value read?
The value was 15%.

For `COC(=O)Nc1ncc(CN2CCCCC2)s1`, which “hERG current change (%, negative = inhibition) at 10uM” value is on record?
Its value is -5%.

How did the “hERG current change (%, negative = inhibition) at 10uM” value turn out when `Cc1ccc(NC(=O)CCC(=O)NNC(=O)Nc2cccc(Cl)c2)c(C)c1` was run?
The value was -12.4%.

With `O=C(c1cc(COc2ccc(F)c(F)c2)on1)N1CCSCC1` as the compound, how does the “hERG current change (%, negative = inhibition) at 10uM” value read?
Its value is -28.9%.

For `Cc1cc(-c2ccccc2)c(C#N)c(=S)[nH]1`, which “hERG current change (%, negative = inhibition) at 10uM” value is on record?
Its value is 15.4%.

Which “hERG current change (%, negative = inhibition) at 10uM” value does the source give for `O=c1[nH]cnc2c1cnn2Cc1ccccc1Cl` here?
Its value is 11.7%.

How did the “hERG current change (%, negative = inhibition) at 10uM” value turn out when `COc1ccc([N+](=O)[O-])cc1NC(=O)C(C)Sc1ccc(C)cc1` (stereo not shown) was run?
Its value is -10.8%.

Which “hERG current change (%, negative = inhibition) at 10uM” value does the source give for `COc1ccc(N(C(=O)c2ccncc2)S(=O)(=O)c2ccc(OC)c(OC)c2)cc1` here?
Its value is -36.9%.

How did the “hERG current change (%, negative = inhibition) at 10uM” value turn out when `O=C(NCc1cccs1)c1ccc(Cl)c(S(=O)(=O)N2CCCC2)c1` was run?
Its value is -19.6%.

With `O=[N+]([O-])c1cccc(S(=O)(=O)N2CCC(c3nc(-c4ccncc4)no3)CC2)c1` as the compound, how does the “hERG current change (%, negative = inhibition) at 10uM” value read?
The value was 1.54%.

With `C1CN(c2nc(N3CCOCC3)nc(N3CCOCC3)n2)CCO1` as the compound, how does the “hERG current change (%, negative = inhibition) at 10uM” value read?
The value was -1.75%.

Which “hERG current change (%, negative = inhibition) at 10uM” value does the source give for `NC(=S)N/N=C\c1ccccc1OCc1ccccc1` here?
The value was -12.6%.

`O=C(CN1C(=O)c2ccccc2S1(=O)=O)c1ccc2c(c1)OCCCO2` was tested. Which “hERG current change (%, negative = inhibition) at 10uM” value did it give?
The value was 20.3%.

How did the “hERG current change (%, negative = inhibition) at 10uM” value turn out when `CC(C)(C)n1nc2c(c1NC(=O)Cc1cccc3ccccc13)CS(=O)C2` (stereo not shown) was run?
The value was 2.29%.

`N/C(=N\OC(=O)COc1ccccc1)c1ccccn1` was tested. Which “hERG current change (%, negative = inhibition) at 10uM” value did it give?
The value was 13.6%.

With `O=C(Cn1ccc2ccccc2c1=O)NCC(=O)N1CCC2(CC1)OCCO2` as the compound, how does the “hERG current change (%, negative = inhibition) at 10uM” value read?
Its value is 5.9%.

How did the “hERG current change (%, negative = inhibition) at 10uM” value turn out when `O=C(C#Cc1cccc([N+](=O)[O-])c1)c1ccccc1` was run?
The value was 17.3%.

For `N#C/C(=C\c1ccc[nH]1)C(=O)NC1CC1`, which “hERG current change (%, negative = inhibition) at 10uM” value is on record?
Its value is 3.27%.

Which “hERG current change (%, negative = inhibition) at 10uM” value does the source give for `COCCN(C(=O)CSc1nnc(-c2ccc(C)cc2)n1N)c1c(N)n(Cc2ccccc2)c(=O)[nH]c1=O` here?
Its value is 20.5%.

For `CCc1nc(N2CCCC2)c(C#N)c2c1CCCC2`, which “hERG current change (%, negative = inhibition) at 10uM” value is on record?
The value was 3.98%.
